Here are results for 44 sequences from the supplement of paper PMC11417369.

± gives the standard deviation of the averaged measurements. The list shows a part of the results.

In the assay the test system is PfAP2-EXP AP2 domain (GST-tagged). As to the kind of experiment: gcPBM binding intensity (ln(normalized median fluorescence intensity)); higher = stronger DNA binding. An outline of the steps: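 An Agilent 4 × 180k array carrying primer-extended double-stranded 36-bp intergenic genomic probes and negative controls received GST-tagged P. falciparum DNA-binding domains expressed in E. coli, about 25 μg on average, for 1 h. The binding buffer contained 1× PBS, 1% milk, 0.2 mg/ml BSA, 0.5% salmon testes DNA and 0.03% Triton X-100. Binding intensity is the top Masliner-normalised natural-log median intensity across replicate spots of either probe orientation, read after Alexa488 anti-GST antibody staining and a 488 nm scan.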
With “GTTATATGAACTTATATACACACCATTTTTGTAAAT [CACACA_site695]”, the “gcPBM binding intensity (ln)” value was 8.56 ± 0.59. Take “TGTAGATATTTTTGGGGTACTTTATAAAGAACTAGT [XGTACX_site5635]”: the “gcPBM binding intensity (ln)” value turned out to be 8.87 ± 0.4. Take “GAAAAACAAATATATTAACACACAAACATATAAACA [CACACA_site9315]”: the “gcPBM binding intensity (ln)” value was 8.77 ± 0.44. Take “ATAAAATCAACAAATCAGGATGTCACGTAAATATCA [CACACA_negctrl_site1009]”: the “gcPBM binding intensity (ln)” value amounted to 8.71 ± 0.54.

As to “ATGAAAAAGTGCTGGATTCTAAAGAAAAAAAAAAAA [CACACA_negctrl_site962]”, the “gcPBM binding intensity (ln)” value was 8.51 ± 0.51. On to “AAATATTGTTTTTTATGTACTTATTTTTATTTATTT [XGTACX_site3481]”, for which the “gcPBM binding intensity (ln)” value stood at 8.78 ± 0.43. Under ATATTTTATATATTTGTGCACAATATTATAATATAT stands 8.69 ± 0.2; under “TTTATTTATTATTAAAGTACTAAATTATATTATTAT [XGTACX_site2565]”, 8.04 ± 0.29; under “AGGCATAATTAAAAGTAACAATTATGGAAACGGAGT [GTGCAC_negctrl_site623]”, 8.93 ± 0.42. In the case of “AAAAAAAAAAAAAACACACACATGCACCTCATATTA [CACACA_site556]”, the “gcPBM binding intensity (ln)” value is 8.85 ± 0.23. “AAAAAAAAAAAAAAATGTACATATAAATAAATATAT [XGTACX_site7248]”: the “gcPBM binding intensity (ln)” value was 8.51 ± 0.42. Under “ACAACATAGAGGGGCACACACATATATACATAAAAA [CACACA_site6954]” stands 8.77 ± 0.53; under “TAATATCCATATAAAACACACATCAAGGTTGTTAAC [CACACA_site175]”, 8.5 ± 0.4. On to “AATTCATATACAAAAAGTACAAACGAAAAATAAAAA [XGTACX_site2900]”, for which the “gcPBM binding intensity (ln)” value turned out to be 8.87 ± 0.58. Consider “TATGTGCACCCATATACACACACAAATACAATGATA [CACACA_site8295]”, for which the “gcPBM binding intensity (ln)” value was determined as 9.99 ± 1.4.

For “GTTATATAAAAATATTGTACATTCTATATAAAGTCA [XGTACX_site4418]”, the “gcPBM binding intensity (ln)” value was found to be 8.41 ± 0.26. Regarding “ATGTTTTATATTATTAATATATATATATATATATAT [CACACA_negctrl_site331]”, the “gcPBM binding intensity (ln)” value was 10.1 ± 0.28. Turning to “AATCTAATTAAAATCACACATATATTCGTCGTAATA [CACACA_site5855]”, the “gcPBM binding intensity (ln)” value was 8.24 ± 0.42.

For the sequence “ATATATATATATATAACACACGTGTATTTATCTGTA [CACACA_site5922]”, the “gcPBM binding intensity (ln)” value came out at 9.99 ± 0.34.

For “AAAAAATTAACGAGTGCACACATATTTAGATAAAAT [CACACA_site8958]”, the “gcPBM binding intensity (ln)” value was 8.68 ± 0.18. Take “ATATATATATATATGTGTACACAAAAAATATTATAT [XGTACX_site5741]”: the “gcPBM binding intensity (ln)” value is 10.1 ± 0.24. Under “ATTCCATAAGTAAACACACAAATGCCAAAATTTTAT [CACACA_site7491]” stands 8.6 ± 0.67; under “ATTCAAAAAAAATCAACACACAGTTACATAGCTCAA [CACACA_site2234]”, 8.45 ± 0.64. Turning to “GCACATATATATGAAACACACATGGAAACATCTCTT [CACACA_site3966]”, the “gcPBM binding intensity (ln)” value turned out to be 8.58 ± 0.52. Regarding “AACGAAAACACTACGTGTACCAAATGTCCTGCCAAC [XGTACX_site5735]”, the “gcPBM binding intensity (ln)” value stood at 8.45 ± 0.53. To “ATGGAAAAAAAGCATTGTACATTTAAAGAAAAACAG [XGTACX_site6639]” belongs 8.91 ± 0.35; to “TATTATATTTGTATGTGTACTTATATGGTTGTAATA [XGTACX_site4548]”, 8.61 ± 0.2. Turning to “AAATATTATCAAACATAAATTATTTTTATCCGTATA [CACACA_negctrl_site771]”, the “gcPBM binding intensity (ln)” value came out at 8.21 ± 0.4. On to “ATATATGTTAATAATTGTACAAATCGATAATATATA [XGTACX_site5076]”, for which the “gcPBM binding intensity (ln)” value stood at 8.95 ± 0.42. Take “AAAAAAATATAGATCTGTACATATATAAATATATGT [XGTACX_site511]”: the “gcPBM binding intensity (ln)” value was determined as 8.21 ± 0.33. As to “TCTCTAATTTTTAATACACACAAATAAATAAATAAA [CACACA_site216]”, the “gcPBM binding intensity (ln)” value was 8.53 ± 0.22. To “AATGTATATTATTGCACACATATATAAAATTATGCT [CACACA_site1096]” belongs 8.38 ± 0.35; to “ATCTCTATGATATATACACACAAATATACAAAAAAA [CACACA_site6605]”, 8.65 ± 0.49; to “ATTTGTGAATATATTCGGTGAACTTTGTTAACACAT [XGTACX_negctrl_site445]”, 8.88 ± 0.39. In the case of “TATACATATATAATATGTACATATATTTTTTTTTAA [XGTACX_site2938]”, the “gcPBM binding intensity (ln)” value came out at 8.15 ± 0.33. Take “CATAAAAATATTTTCTGTACATATTCATATGACGTT [XGTACX_site3406]”: the “gcPBM binding intensity (ln)” value was 8.61 ± 0.33.

For the sequence “ATAAATAAAATTAGGTGTACTTTAATTAAAGAAAAT [XGTACX_site3319]”, the “gcPBM binding intensity (ln)” value was 8.84 ± 0.21.

As to “AGGTTCCCAAAATGCACACCAATGAAATTATTTATT [CACACA_site553]”, the “gcPBM binding intensity (ln)” value was 8.49 ± 0.2. To “ATAAATATTGGGTGCACACACATAATATATATATAT [CACACA_site2272]” belongs 10.1 ± 0.21. “AAAATAAAAAATATAACACACAATAAATATATATAT [CACACA_site1926]”: the “gcPBM binding intensity (ln)” value stood at 9.485 ± 0.021. As to “TATACAAAATAACTAGCACACATATGTATAAACATA [CACACA_site9236]”, the “gcPBM binding intensity (ln)” value came to 8.77 ± 0.28. “GAAAAAAAAAAAAAAAAAAAAAAATTCATTTTTTTT [XGTACX_negctrl_site54]”: the “gcPBM binding intensity (ln)” value came to 7.98 ± 0.49.

For the sequence “ATAATCATTTGGATATTCACAATATTTAAAATTAAA [CACACA_negctrl_site909]”, the “gcPBM binding intensity (ln)” value was 8.06 ± 0.42. Under “ATTTCCTGGCTACTGTGTACTGACCTCCAGACTGCT [XGTACX_site2005]” stands 8.81 ± 0.55.
